# Laboratory results as given in PMC12040169 (PLOS Biology, 2025).
# The list shows a part of the results.
# Tested on: T1, C. trachomatis L2/434/Bu expressing GFP (CTL2-GFP)
# T1 construct: L2/434/Bu GFP intracellular growth in HeLa cells
# Set-up: species or system HeLa; C. trachomatis total inclusion area by high-content imaging, normalised to DMSO
# Conditions: total inclusion area; 28.5 h, 10 µM; inhibitor
# How it was run: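 Imaging read-out: GFP inclusions and Hoechst nuclei captured by high-content imaging after fixation. Inclusion area/number = chlamydial growth; nuclei count = host cell viability. MIC calculated per earlier method.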
row,Structure (SMILES),% of control remaining
1,CC(C)(O)Cc1ccccc1C(=O)NC1CCCCCC1 [CBK010502],78.1574
2,O=C(Nc1ccc(Oc2ccccc2)cc1)c1cc([N+](=O)[O-])cc2cn[nH]c12 [CBK293985],101.919
3,Nc1nc(N)n(-c2ccccc2)n1 [CBK026515],53.3498
4,Cc1ccc(N2C(=O)CC(Sc3ncccc3C(=O)O)C2=O)cc1 (stereo not drawn) [CBK287761],98.4587
5,CN(c1ncccc1CNC(=O)c1cccnc1)C1CCCCC1 [CBK306555],32.644
6,CC(C)C[C@@H]1N[C@H](C(=O)NCCN(C)C)Cc2c[nH]c3cccc1c23 [CBK289417],112.051
7,Oc1ccc(-n2cc(-c3ccc(F)cc3)nn2)cc1 [CBK113126],104.875
8,CCC1CN(C(=O)Cn2cnc3ccc(F)cc3c2=O)CCO1 (stereo not drawn) [CBK305795],50.9697
9,O=C(Nc1ccncc1)OCCc1cccnc1 [CBK200125],95.4326
10,CCn1c(CN(C)Cc2cc(C)[nH]n2)nc2ccccc21 [CBK282120],109.294
11,O=C(CSc1nnc(COc2ccccc2)n1-c1ccccc1)c1cccs1 [CBK265133],82.399
12,Cc1cc(C)nc(NC2=NC3CCCCC3N2C(=O)Nc2ccc(Cl)c(Cl)c2)n1 (stereo not drawn) [CBK266458],85.9632
13,Cc1ccc(Cl)cc1NC(=N)NC(=N)N [CBK268049],121.252
14,O=C(O)c1ccc(-n2ccnc2)c(C#Cc2ccccc2)c1 [CBK284502],115.611
15,Cn1c(-c2ccccc2)cnc1NC(=O)CC1CCN(C(=O)Cc2ccccc2)CC1 [CBK285966],121.015
16,Cc1ccc(SCCNS(=O)(=O)c2cccc([N+](=O)[O-])c2)cc1 [CBK267508],81.5281
17,Cc1nn(-c2cccc(Br)c2)c(C)c1[C@@H]1C=C[C@@H](NS(C)(=O)=O)C1 [CBK288806],110.384
18,Cc1cccc(OCCNC(=O)CN2CCCC2c2cnn(C)c2)c1 (stereo not drawn) [CBK305826],79.2148
19,O=C(O)/C(O)=C/C(=O)c1ccc(F)cc1 [CBK261844],92.0278
20,Cc1nsc(NCc2ccccc2CN2CCC(O)CC2)c1C#N [CBK304695],68.582
21,COCC(=O)N1CCC(c2onc3c2CC(C)CC3)CC1 (stereo not drawn) [CBK284599],96.6699

row,Structure (SMILES),% of control remaining
1,CC(C(=O)N1CCC(c2ccncc2)CC1)c1ccccc1 (stereo not drawn) [CBK285484],99.9464
2,CCc1nc(CN2CCN(c3ccc4nc(C)nn4n3)CC2)cs1 [CBK306285],62.9256
3,Cc1cccc(-c2nc(CN3CCOCC3)cs2)c1 [CBK270299],112.169
4,COc1ccc(CCOc2nccnc2-c2ccc(OC(F)(F)F)cc2)cc1 [CBK106846],79.4067
5,Cc1ccccc1C(=O)Nc1nc2ccc(S(C)(=O)=O)cc2s1 [CBK287337],92.2011
6,CN(C)S(=O)(=O)c1ccc(Cl)c(C(=O)Nc2cccc([N+](=O)[O-])c2)c1 [CBK265721],112.793
7,CCCN1C[C@H](NC(=O)CC)[C@@H](c2ccc(OC)cc2)C1 [CBK282134],77.2318
8,CCCCC(c1nnn[nH]1)n1nnc2ccccc21 (stereo not drawn) [CBK023526],85.6874
9,CSCCOc1cncc(N2CCCC2)n1 [CBK115761],116.543
10,CCCc1ccc(C(=O)NCC(C)n2cncn2)o1 (stereo not drawn) [CBK282883],110.268
11,Cn1cc(-c2ccc(C3CCCCN3Cc3ccnc4ccccc34)cn2)cn1 (stereo not drawn) [CBK285672],101.691
12,Cc1cccc(-c2cn3ccnc3c(N3CCN(c4ccccn4)CC3)n2)c1 [CBK066478],116.473
13,CSc1nnc(-c2cccc(C)c2)n1CC1CCCCC1 [CBK085418],101.624
14,O=C(O)c1ccc(CSc2nnc(-c3ccccc3)n2Cc2ccccc2)cc1 [CBK265013],98.9438
15,CC(=O)NCc1cccc(-c2cc(OCC3COc4ccccc4O3)cnc2C)c1 (stereo not drawn) [CBK161723A],87.8969
16,O=C(Nc1cccc2[nH]ccc12)c1ccc2c(c1)OCCO2 [CBK159657],108.036
17,CCCC12CN3CC(CCC)(CN(C1)C3c1ccc(O)c(OC)c1)C2=O (stereo not drawn) [CBK265531],108.726
18,COc1cc(C(=O)N2CCC3(CC2)CC(=O)c2cc(NC(C)=O)ccc2O3)nc2c(OC)cccc12 [CBK170664],94.235
19,CCOc1cccc(N2C(=O)CC(N3CCC(C(N)=O)(N4CCCCC4)CC3)C2=O)c1 (stereo not drawn) [CBK263562],59.8725
20,Cc1nonc1OCCN1CCN(c2cc3c(cc2[N+](=O)[O-])n(C)c(=O)n3C)CC1 [CBK267676],103.425
21,CCOC(=O)c1cccc(NC(=O)CSc2nc3cccnc3[nH]2)c1 [CBK269354],75.5752

row,Structure (SMILES),% of control remaining
1,CC12CN(S(=O)(=O)c3ccccc3)CC(c3ccccc3)(CN(S(=O)(=O)c3ccccc3)C1)C2=O [CBK268101],108.625
2,CC1CN(C)c2ccccc2CN1C(=O)Cc1cn2ccsc2n1 (stereo not drawn) [CBK306355],104.798
3,Cc1ccc(-c2noc(CN3CCN(Cc4ccccc4)CC3)n2)cc1 [CBK267288],105.177
4,COC(=O)Cn1nnc(-c2ccccc2)n1 [CBK069215],100.048
5,O=C(C1CC1)N1CCC(C(=O)N(Cc2ccco2)c2ccccc2)CC1 [CBK298269],87.1981
6,CC(=O)Nc1ccc(NC(=O)CCC(=O)O)cc1C [CBK265395],95.2899
7,CC(NC(=O)N1CCCN(Cc2cccs2)CC1)c1nncn1C (stereo not drawn) [CBK305322],70.4893
8,COc1ccccc1-c1ccccc1CC1(C(=O)NCc2ccc(F)cc2)CCOCC1 [CBK286425],93.5026
9,c1ccc2c(OCc3nnn[nH]3)cccc2c1 [CBK269495],87.0197
10,Cc1onc(-c2ccccc2)c1CNC(=O)CC1CC1 [CBK144072],102.061
11,CN(C)CCNc1cc(-c2ccncc2)nc2ccccc12 [CBK066898B],64.1624
12,Cc1nc(CC(=O)NC(Cc2ccsc2)c2nccs2)cs1 (stereo not drawn) [CBK282823],105.593
13,O=C(CC(C(=O)O)P(=O)(c1ccccc1)c1ccccc1)c1ccccc1 (stereo not drawn) [CBK264971],114.352
14,O=C(O)CCC(=O)Nc1cccc(NC(=O)c2ccc(Br)cc2)c1 [CBK300180],95.8923
15,CNCCc1n[nH]c(N)n1 [CBK020959],87.2778
16,O=[N+]([O-])c1ccc(Cl)cc1CN1CCN(C/C=C/c2ccccc2)CC1 [CBK261568],108.378
17,COc1ccc(Nc2nc(-c3cccc(-c4ccccc4)c3)cnc2N)cc1 [CBK063593],113.14
18,Cn1c(=O)[nH]c(=O)c2c1nc(N/N=C/c1cc(Br)ccc1O)n2CCO [CBK139415],63.6967
19,COc1ccccc1NC(=O)c1ccc(OCC(=O)O)cc1 [CBK265849],57.1642
20,O=C(NCC(c1ccccc1)c1c[nH]c2ccccc12)Nc1ccc(Cl)cc1 (stereo not drawn) [CBK269147],89.3121
21,O=C(NC1Cc2ccccc2C1)c1nc2ccccc2[nH]1 [CBK200361],87.8021

row,Structure (SMILES),% of control remaining
1,Cc1ccc(O)c(NC(=O)COc2ccc(Cl)cc2)c1 [CBK268670],96.2045
2,Cc1cc(C(=O)N2CCN3C(=O)CCC32C)c(C2CC2)o1 (stereo not drawn) [CBK282092],88.8917
3,O=C(O)c1ccc(Nc2ncnc3c2oc2ccccc23)cc1 [CBK269825C],88.7279
4,C/C=N\n1c(CO)nnc1CO [CBK034325],82.8016
5,CCN1CCCC1CN(Cc1cnn(C)c1)Cc1ccco1 (stereo not drawn) [CBK282470],112.393
6,O=C(Cc1ccsc1)N1CCn2nc(C(O)Cc3ccccc3)cc2C1 (stereo not drawn) [CBK306547],63.9528
7,O=C(COc1ccc2ccccc2c1)Oc1ccc2ccccc2c1 [CBK264885],105.287
8,Cc1nc(N)nc(N[C@@H]2CCOC[C@H]2OCCN(C)C)c1Cl [CBK307024],49.2237
9,Cc1ccc(Cn2nc(NC(=O)c3cc(C)on3)c3ccccc32)cc1 [CBK048215],103.555
10,Cc1cn(C2CC(O)C(CO)O2)c(=O)nc1SCCC#N (stereo not drawn) [CBK201201],104.181
11,Cc1nc2ccc(C(=O)N(C)CCN(C)C)cn2c1N(C)Cc1cccs1 [CBK146083],98.775
12,Cc1ccc2c(c1)C(=O)CC1(CCC3C(C(=O)N4CCCC4)C31)O2 (stereo not drawn) [CBK284951],93.9963
13,Cc1cc(C)n(CC(=O)NCCCn2ccnc2C(C)C)c(=O)n1 [CBK307185],29.739
14,Cc1ccccc1C(=O)Nc1cccc(NC(=S)NC(=O)c2cccs2)c1 [CBK263895],107.71
15,CC(C)C[C@H](NC(=O)N1CC(=O)Nc2ccccc21)C(=O)O [CBK286589],51.0276
16,FC(F)(F)c1ccnc(Sc2ccccn2)n1 [CBK093786],101.427
17,CC(=O)N1c2ccc(C(O)CN3CCSCC3)cc2CC1C (stereo not drawn) [CBK283143],102.646
18,CCN(Cc1ccncc1)C(=O)NCc1c(Cl)cccc1Cl [CBK155144],81.5085
19,CC(C)C1OC(NC2CC(C)(C)NC(C)(C)C2)=NC1=O (stereo not drawn) [CBK070360T],78.4905
20,CN1CCC(N(C)C(=O)NCCN2CCOCC2)C1 (stereo not drawn) [CBK156002],77.1434
21,Cc1cc(Cl)ccc1NC(=O)COC(=O)c1ccccc1I [CBK265638],113.22
